Results on one substance are retold here after patent publication US20020065213A1, “METHODS AND COMPOSITIONS FOR NONVIRAL GENE DELIVERY” (priority 1998, published 2002).

The test relates to B16 cells, PPC-1 cells. The test is described as follows: Effect on calcium phosphate, adenoviral and electroporation transfection in vitro. In kind it is cell-based. Here is the method: B16 cells were electroporated with p4241 as per BioRad (Hercules, Calif.) instructions for the GenePulser II. Calcium phosphate transfections were performed as described in the manufacturer's instructions (Gibco BRL, Grand Island, N.Y.). Adenoviral infection of PPC-1 cells was performed as previously described (Graham and […], 1991).

Take fucoidan: the “adenoviral or electroporation methods of transfection in vitro” value was “did not interfere”.
